From article PMC4336329 (PLoS ONE, 2015)
In all, about 310,000 compounds went through this assay and about 2,200 (0.71%) showed an effect of 50% or more. Effects have a minus sign here. Some of the results follow.

target: human ether-à-go-go-related gene (hERG) potassium channel (human, UniProt Q12809); test: primary screen, population patch clamp on CHO cells stably expressing hERG
Sequence (Q12809 whole entry, looked up): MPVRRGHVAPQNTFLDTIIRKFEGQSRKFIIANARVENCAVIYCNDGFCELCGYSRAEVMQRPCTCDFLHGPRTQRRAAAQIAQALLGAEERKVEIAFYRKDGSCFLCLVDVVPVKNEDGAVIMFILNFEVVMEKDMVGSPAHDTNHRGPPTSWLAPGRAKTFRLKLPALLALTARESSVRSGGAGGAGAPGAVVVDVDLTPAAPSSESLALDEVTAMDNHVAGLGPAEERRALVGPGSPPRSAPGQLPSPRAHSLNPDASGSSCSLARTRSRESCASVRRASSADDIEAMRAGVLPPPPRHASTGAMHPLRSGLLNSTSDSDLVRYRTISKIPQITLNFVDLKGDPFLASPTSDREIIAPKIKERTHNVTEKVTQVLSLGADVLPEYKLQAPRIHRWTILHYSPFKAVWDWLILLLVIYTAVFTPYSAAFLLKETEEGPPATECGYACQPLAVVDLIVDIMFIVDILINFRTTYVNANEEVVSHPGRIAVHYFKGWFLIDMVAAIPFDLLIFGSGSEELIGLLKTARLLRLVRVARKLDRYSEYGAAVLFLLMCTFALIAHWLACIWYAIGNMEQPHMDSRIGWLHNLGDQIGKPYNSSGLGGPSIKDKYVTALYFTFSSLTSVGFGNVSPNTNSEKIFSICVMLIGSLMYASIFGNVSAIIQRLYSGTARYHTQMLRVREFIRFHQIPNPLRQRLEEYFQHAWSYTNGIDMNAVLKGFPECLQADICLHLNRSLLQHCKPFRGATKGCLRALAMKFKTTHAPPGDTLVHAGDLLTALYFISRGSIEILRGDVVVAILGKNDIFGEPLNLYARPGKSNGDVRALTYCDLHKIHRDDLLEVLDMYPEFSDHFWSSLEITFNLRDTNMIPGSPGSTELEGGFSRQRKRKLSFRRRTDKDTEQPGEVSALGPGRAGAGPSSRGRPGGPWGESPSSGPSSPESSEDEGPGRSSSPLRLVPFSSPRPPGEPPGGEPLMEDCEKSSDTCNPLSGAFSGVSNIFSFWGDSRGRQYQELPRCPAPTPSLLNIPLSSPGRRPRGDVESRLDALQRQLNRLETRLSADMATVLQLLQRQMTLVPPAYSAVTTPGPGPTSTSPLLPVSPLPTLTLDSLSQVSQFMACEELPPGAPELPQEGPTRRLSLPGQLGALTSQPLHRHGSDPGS

**Q.** Which “hERG current change (%, negative = inhibition) at 1uM” value does the source give for `O=C(NN=C1C2CC3CC(C2)CC1C3)c1ccccc1O` here?
**A.** 3.73%

**Q.** How did the “hERG current change (%, negative = inhibition) at 1uM” value turn out when `O=C(NN1CCOCC1)c1cccc(COc2cccc(Br)c2)c1` was run?
**A.** 6.41%

**Q.** With `O=C(CSc1n[nH]c(=O)[nH]c1=O)N1CCCCCC1` as the molecule, how does the “hERG current change (%, negative = inhibition) at 1uM” value read?
**A.** 4.37%

**Q.** Which “hERG current change (%, negative = inhibition) at 1uM” value does the source give for `CS(=O)(=O)Nc1ccccc1C(=O)Nc1cc(Cl)cc(Cl)c1` here?
**A.** -4.85%

**Q.** `Cc1ccc(NC(=O)CN(C)CC(=O)Nc2ccccc2C(=O)Nc2ccccc2)cc1` was tested. Which “hERG current change (%, negative = inhibition) at 1uM” value did it give?
**A.** 8.74%

**Q.** For `Cl.c1ccc(CN2CCN(c3nc(N4CCOCC4)c4ccccc4n3)CC2)cc1`, which “hERG current change (%, negative = inhibition) at 1uM” value is on record?
**A.** -16.5%

**Q.** With `CCOC(=O)C1CCCN(C(=O)c2ccc(C(=O)c3ccccc3)cc2)C1` (stereo not drawn) as the molecule, how does the “hERG current change (%, negative = inhibition) at 1uM” value read?
**A.** -2.45%

**Q.** For `Cc1cc(N2CCCC2)nc2c(C)cccc12`, which “hERG current change (%, negative = inhibition) at 1uM” value is on record?
**A.** 4.82%

**Q.** `CC(C)(C)c1ccc(-c2nnc(N)o2)cc1` was tested. Which “hERG current change (%, negative = inhibition) at 1uM” value did it give?
**A.** 20.2%

**Q.** With `COc1cc(C2OC(c3cc(OC)c(OC)c(OC)c3)C(C)C2C)cc(OC)c1OC` (stereo not drawn) as the molecule, how does the “hERG current change (%, negative = inhibition) at 1uM” value read?
**A.** 1.62%

**Q.** How did the “hERG current change (%, negative = inhibition) at 1uM” value turn out when `N#Cc1c(N)oc(-c2ccco2)c1-c1ccco1` was run?
**A.** 7.05%

**Q.** How did the “hERG current change (%, negative = inhibition) at 1uM” value turn out when `CCCc1nn(C(=O)c2ccccc2)c2c1C(=O)CC(C)(C)C2` was run?
**A.** 12.2%

**Q.** With `O=C(CC1NC2CCCCC2NC1=O)Nc1ccc2c(c1)OCO2` (stereo not drawn) as the molecule, how does the “hERG current change (%, negative = inhibition) at 1uM” value read?
**A.** 4.97%

**Q.** With `O=C(O)CCN1C(=O)c2ccc(Oc3ccc4c(c3)C(=O)N(CCC(=O)O)C4=O)cc2C1=O` as the molecule, how does the “hERG current change (%, negative = inhibition) at 1uM” value read?
**A.** 4.91%

**Q.** How did the “hERG current change (%, negative = inhibition) at 1uM” value turn out when `Cc1cc(=O)oc2c3c(cc(OCC(=O)N[C@@H](CC(C)C)C(=O)O)c12)OC(C)(C)CC3` was run?
**A.** 10.5%

**Q.** Which “hERG current change (%, negative = inhibition) at 1uM” value does the source give for `COc1ccc(C(=O)Nc2ccccc2N2CCCC2)cc1S(=O)(=O)N1CCOCC1` here?
**A.** 0.389%

**Q.** `CCn1ncc(/C=N/N=C2\CCC3C4CCc5cc(O)ccc5C4CCC23C)c1C` (stereo not drawn) was tested. Which “hERG current change (%, negative = inhibition) at 1uM” value did it give?
**A.** 9.73%

**Q.** With `COc1ccc(CC(=O)OCC(=O)NCc2ccco2)cc1` as the molecule, how does the “hERG current change (%, negative = inhibition) at 1uM” value read?
**A.** 12.3%

**Q.** Which “hERG current change (%, negative = inhibition) at 1uM” value does the source give for `COc1ccc(NC(=O)c2ccc(S(=O)(=O)N3CCOCC3)cc2)c(OC)c1` here?
**A.** 14.9%

**Q.** Which “hERG current change (%, negative = inhibition) at 1uM” value does the source give for `COc1ccc(CCC(=O)N2CCCC(Nc3ccc(OC)cc3)C2)cc1` (stereo not drawn) here?
**A.** 5.24%

**Q.** Which “hERG current change (%, negative = inhibition) at 1uM” value does the source give for `Cc1ccccc1NC(=O)NC1CCCCC1C` (stereo not drawn) here?
**A.** 5.3%

**Q.** Which “hERG current change (%, negative = inhibition) at 1uM” value does the source give for `COc1ccc(NC(=O)CS(=O)CC(=O)NC2CCCc3ccccc32)cc1` (stereo not drawn) here?
**A.** -1.8%

**Q.** Which “hERG current change (%, negative = inhibition) at 1uM” value does the source give for `CN(CC(O)COC(c1ccccc1)c1ccccc1)C1CCCCC1` (stereo not drawn) here?
**A.** -38.1%

**Q.** How did the “hERG current change (%, negative = inhibition) at 1uM” value turn out when `Cc1ccc(CN2CCN(Cc3cnc(C)[nH]3)CC2CCO)cc1` (stereo not drawn) was run?
**A.** 5.97%

**Q.** `Oc1c(Br)cc(Br)cc1C=Nc1cccc2ncccc12` was tested. Which “hERG current change (%, negative = inhibition) at 1uM” value did it give?
**A.** 15.7%

**Q.** `COc1ccc(NC(=O)c2oc3ccccc3c2NC(=O)c2ccco2)c(OC)c1` was tested. Which “hERG current change (%, negative = inhibition) at 1uM” value did it give?
**A.** 4.57%

**Q.** `CCOc1ccc(C(=O)Nc2cc(C)c3c(=O)oc4ccccc4c3n2)cc1` was tested. Which “hERG current change (%, negative = inhibition) at 1uM” value did it give?
**A.** 10.1%

**Q.** For `CCn1c(SCC(=O)N/N=C/c2cccs2)nc2ccccc21`, which “hERG current change (%, negative = inhibition) at 1uM” value is on record?
**A.** -5.66%

**Q.** Which “hERG current change (%, negative = inhibition) at 1uM” value does the source give for `CCOC(=O)c1cccc(NC(=O)C2(S(=O)(=O)c3ccc(Cl)cc3)CC2)c1` here?
**A.** 6.06%

**Q.** How did the “hERG current change (%, negative = inhibition) at 1uM” value turn out when `Cn1c(NCc2c[nH]c3ccccc23)nc2ccccc21` was run?
**A.** -3.39%

**Q.** For `c1ccc(-c2nc(NCCCn3ccnc3)c3ccccc3n2)cc1`, which “hERG current change (%, negative = inhibition) at 1uM” value is on record?
**A.** -30.2%

**Q.** For `C=CCn1c(O)c(C(C)=Nc2ccc(N(C)C)cc2)c(=O)[nH]c1=O`, which “hERG current change (%, negative = inhibition) at 1uM” value is on record?
**A.** 6.01%

**Q.** `CC1CCN(c2ccc(-c3ccc(NC(=O)c4ccco4)cc3)nn2)CC1` was tested. Which “hERG current change (%, negative = inhibition) at 1uM” value did it give?
**A.** 16.3%

**Q.** With `O=[N+]([O-])c1cccc(S(=O)(=O)NCCc2cccs2)c1` as the molecule, how does the “hERG current change (%, negative = inhibition) at 1uM” value read?
**A.** -6.32%

**Q.** For `C/C(=N\OCC(=O)Nn1c(C)nc2ccccc2c1=O)c1cccs1`, which “hERG current change (%, negative = inhibition) at 1uM” value is on record?
**A.** 13.5%

**Q.** With `COc1ccccc1OCC(=O)Nc1ccc(S(=O)(=O)N2CCN(C)CC2)cc1` as the molecule, how does the “hERG current change (%, negative = inhibition) at 1uM” value read?
**A.** 7.01%

**Q.** How did the “hERG current change (%, negative = inhibition) at 1uM” value turn out when `C[C@@H]1CC=C[C@H]2[C@H]1C(=O)N(Cc1ccccc1)[C@H]2c1cccc([N+](=O)[O-])c1` was run?
**A.** 5.81%

**Q.** For `COc1ccc(CC(=O)OCC(=O)NCc2ccco2)cc1OC`, which “hERG current change (%, negative = inhibition) at 1uM” value is on record?
**A.** 17.9%

**Q.** For `Cc1ccc(Sc2cnccc2C#N)cc1`, which “hERG current change (%, negative = inhibition) at 1uM” value is on record?
**A.** 11%

**Q.** With `Cc1ccc2c(c1)C(C)CC(C)(C)N2C(=O)CN1CCN(C)CC1.O=C(O)C(=O)O` (stereo not drawn) as the molecule, how does the “hERG current change (%, negative = inhibition) at 1uM” value read?
**A.** -2.34%

**Q.** How did the “hERG current change (%, negative = inhibition) at 1uM” value turn out when `O=c1[nH]c(C2CCCN(S(=O)(=O)c3ccccc3Cl)C2)nc2c1nnn2Cc1ccc2c(c1)OCCO2` (stereo not drawn) was run?
**A.** 13.5%

**Q.** How did the “hERG current change (%, negative = inhibition) at 1uM” value turn out when `Cc1cc(C)c2c(n1)nn1c(C)c(CCC(=O)NCc3ccco3)c(C)nc21` was run?
**A.** 6.52%

**Q.** For `O=C(Nc1ccc(Br)cc1)/C(=C/c1cccc([N+](=O)[O-])c1)NC(=O)C1CCCCC1`, which “hERG current change (%, negative = inhibition) at 1uM” value is on record?
**A.** -3.32%

**Q.** How did the “hERG current change (%, negative = inhibition) at 1uM” value turn out when `CC(C)Cc1cc(C(=O)Nc2ccc(F)cc2F)no1` was run?
**A.** 8.18%

**Q.** For `CCCCC(=O)NC(=S)Nc1cc([N+](=O)[O-])ccc1OC`, which “hERG current change (%, negative = inhibition) at 1uM” value is on record?
**A.** 0.285%

**Q.** For `Cc1ccc(Nc2nc(C)c3c(n2)CC(C)CC3=O)c(C)c1` (stereo not drawn), which “hERG current change (%, negative = inhibition) at 1uM” value is on record?
**A.** 6.41%

**Q.** With `Cc1cc(-c2c(C(=O)N3CCOCC3)c(C)nn2-c2ccccc2)no1` as the molecule, how does the “hERG current change (%, negative = inhibition) at 1uM” value read?
**A.** 4.93%

**Q.** For `N#Cc1ccccc1OCC(=O)Nc1ccccc1C(=O)NC1CC1`, which “hERG current change (%, negative = inhibition) at 1uM” value is on record?
**A.** 7.89%

**Q.** For `CCC(C)n1cnc2c(=O)oc3ccccc3c21` (stereo not drawn), which “hERG current change (%, negative = inhibition) at 1uM” value is on record?
**A.** 8.83%

**Q.** How did the “hERG current change (%, negative = inhibition) at 1uM” value turn out when `Cc1onc(-c2c(F)cccc2Cl)c1C(=O)OCC(=O)NCc1ccco1` was run?
**A.** 11.6%

**Q.** How did the “hERG current change (%, negative = inhibition) at 1uM” value turn out when `CC(=NCCN1CCCCC1)c1c(O)[nH]c(=O)[nH]c1=O` was run?
**A.** -1.43%

**Q.** How did the “hERG current change (%, negative = inhibition) at 1uM” value turn out when `CC(=O)Oc1ccc(Oc2ccc(-c3noc(C)n3)cc2)cc1` was run?
**A.** 22.5%

**Q.** For `Nc1nc(Nc2cccc(F)c2)nc(N2CCOCC2)c1[N+](=O)[O-]`, which “hERG current change (%, negative = inhibition) at 1uM” value is on record?
**A.** 8.12%

**Q.** `O=C(O)C1CCCN1c1nc(C(F)(F)F)nc2ccccc12` (stereo not drawn) was tested. Which “hERG current change (%, negative = inhibition) at 1uM” value did it give?
**A.** 13.2%

**Q.** Which “hERG current change (%, negative = inhibition) at 1uM” value does the source give for `CCN(C(=O)COC(=O)c1ccc(O)cc1O)c1c(N)n(Cc2ccccc2)c(=O)[nH]c1=O` here?
**A.** 0.207%

**Q.** How did the “hERG current change (%, negative = inhibition) at 1uM” value turn out when `COc1ccc(OC(=O)CCN2C(=O)C3C4C=CC(C4)C3C2=O)cc1` (stereo not drawn) was run?
**A.** -3.36%

**Q.** `O=C(COc1ccccc1Cl)Nc1ccc(CN2CCOCC2)cc1` was tested. Which “hERG current change (%, negative = inhibition) at 1uM” value did it give?
**A.** 5.4%
